Results taken from a compilation of properties of binary mixtures (doi:10.1021/jp510884t).
The densities may have been worked out from excess volumes.

Experiment: xn = mol fraction of the nth substance listed
Conditions: 101 kPa

ClCCCCl + CCCC[n+]1ccc(C)cc1.F[B-](F)(F)F
mass density [kg/m3]
Conditions | 298.15 K | 318.15 K
x1 = 0.1183 | 1183.3 | –
x1 = 0.3869 | 1184.6 | –
x1 = 0.3919 | – | 1169.4
x1 = 0.4996 | – | 1169.4
x1 = 0.5908 | 1185.8 | –
x1 = 0.5953 | – | 1169.1
x1 = 0.6425 | 1186.1 | –
x1 = 0.699 | – | 1168.3
x1 = 0.7003 | 1186.4 | –
x1 = 0.7414 | 1186.4 | –
x1 = 0.7475 | – | 1167.6
x1 = 0.7857 | 1186.3 | –
x1 = 0.7931 | – | 1166.8
x1 = 0.835 | – | 1165.7
x1 = 0.8434 | 1185.8 | –
x1 = 0.9072 | 1184.8 | –
x1 = 0.9099 | – | 1162.7
x1 = 0.9435 | – | 1160.7
x1 = 0.9735 | – | 1158.4
x1 = 1 | 1180.1 | 1155

CCCC[n+]1ccc(C)cc1.F[B-](F)(F)F + ClCCCl
Conditions | mass density [kg/m3]
298.15 K, x2 = 0.1992 | 1190
298.15 K, x2 = 0.3028 | 1194.6
298.15 K, x2 = 0.4492 | 1202.5
298.15 K, x2 = 0.5132 | 1206.5
298.15 K, x2 = 0.642 | 1216.2
298.15 K, x2 = 0.6913 | 1220.3
298.15 K, x2 = 0.7412 | 1224.9
298.15 K, x2 = 0.7845 | 1228.9
298.15 K, x2 = 0.826 | 1233
298.15 K, x2 = 0.8579 | 1236.3
298.15 K, x2 = 0.8921 | 1239.4
298.15 K, x2 = 0.9228 | 1242.5
298.15 K, x2 = 0.9504 | 1244.7
318.15 K, x2 = 0 | 1169.3
318.15 K, x2 = 0.2081 | 1176
318.15 K, x2 = 0.292 | 1179.3
318.15 K, x2 = 0.3709 | 1182.6
318.15 K, x2 = 0.4395 | 1186.1
318.15 K, x2 = 0.5069 | 1189.7
318.15 K, x2 = 0.5799 | 1194.2
318.15 K, x2 = 0.6337 | 1197.6
318.15 K, x2 = 0.6867 | 1201.4
318.15 K, x2 = 0.7357 | 1204.9
318.15 K, x2 = 0.7787 | 1208.1
318.15 K, x2 = 0.8648 | 1214.4
318.15 K, x2 = 0.8799 | 1215.3
318.15 K, x2 = 0.9241 | 1217.7
318.15 K, x2 = 0.9545 | 1218.6
318.15 K, x2 = 0.9775 | 1218.4

ClCCCl + CCCC[n+]1cccc(C)c1.F[B-](F)(F)F
x1 = 1
Conditions | mass density [kg/m3]
298.15 K | 1245.4
318.15 K | 1216.2

CCCC[n+]1ccccc1C.F[B-](F)(F)F + ClCCCCCl
mass density [kg/m3]
Conditions | x2 = 0 | x2 = 0.1059 | x2 = 0.1102 | x2 = 0.2048 | x2 = 0.3085 | x2 = 0.4073 | x2 = 0.5173 | x2 = 0.5927 | x2 = 0.6068
298.15 K | 1201.7 | 1198.8 | – | 1195.7 | 1191.9 | 1187.6 | – | 1176.7 | –
318.15 K | – | – | 1184.7 | – | – | – | 1165.8 | – | 1159.4

CCCC[n+]1ccccc1C.F[B-](F)(F)F + ClCCCCl
Conditions | mass density [kg/m3]
298.15 K, x2 = 0.1157 | 1201.5
298.15 K, x2 = 0.202 | 1201.4
298.15 K, x2 = 0.3057 | 1201
298.15 K, x2 = 0.501 | 1199.9
298.15 K, x2 = 0.6111 | 1198.6
298.15 K, x2 = 0.7037 | 1196.7
298.15 K, x2 = 0.801 | 1193.5
298.15 K, x2 = 0.9475 | 1185.8
298.15 K, x2 = 0.9715 | 1183.6
318.15 K, x2 = 0 | 1188.3
318.15 K, x2 = 0.1571 | 1187.3
318.15 K, x2 = 0.2096 | 1187.1
318.15 K, x2 = 0.2596 | 1186.7
318.15 K, x2 = 0.3112 | 1186.4
318.15 K, x2 = 0.367 | 1185.9
318.15 K, x2 = 0.5131 | 1183.8
318.15 K, x2 = 0.6075 | 1181.8
318.15 K, x2 = 0.7082 | 1178.6
318.15 K, x2 = 0.8074 | 1173.8
318.15 K, x2 = 0.8671 | 1169.7
318.15 K, x2 = 0.9046 | 1166.9
318.15 K, x2 = 0.9426 | 1163.3
318.15 K, x2 = 0.9731 | 1159.5

ClCCCl + CCCC[n+]1ccccc1C.F[B-](F)(F)F
x1 = 1
Conditions | mass density [kg/m3]
298.15 K | 1245.4
318.15 K | 1216.2

CCCC[n+]1ccccc1C.F[B-](F)(F)F + ClCCl
298.15 K
Conditions | mass density [kg/m3]
x2 = 0 | 1201.7
x2 = 0.0314 | 1203.6
x2 = 0.1097 | 1207.8
x2 = 0.162 | 1210.8
x2 = 0.2062 | 1214.1
x2 = 0.349 | 1224.9
x2 = 0.3949 | 1229.1
x2 = 0.4647 | 1235.6
x2 = 0.5209 | 1241.8
x2 = 0.5872 | 1249.6
x2 = 0.6304 | 1255.3
x2 = 0.8222 | 1285.6
x2 = 0.8767 | 1296.3
x2 = 0.8816 | 1297
x2 = 0.9332 | 1307.6
x2 = 0.9429 | 1308.9

CCCC[n+]1ccc(C)cc1.F[B-](F)(F)F + ClCCCCl
x2 = 0
Conditions | mass density [kg/m3]
298.15 K | 1183.1
318.15 K | 1169.3

CCCC[n+]1ccc(C)cc1.F[B-](F)(F)F + ClCCCCCl
x2 = 0
Conditions | mass density [kg/m3]
298.15 K | 1183.1
318.15 K | 1169.3

CCCC[n+]1cccc(C)c1.F[B-](F)(F)F + ClCCCCCl
Conditions | mass density [kg/m3]
318.15 K, x2 = 0 | 1169.4

CCCC[n+]1ccc(C)cc1.F[B-](F)(F)F + ClCCl
298.15 K
Conditions | mass density [kg/m3]
x1 = 0.0164 | 1313.8
x2 = 0 | 1183.1
x2 = 0.0927 | 1188.3
x2 = 0.2085 | 1195.7
x2 = 0.2914 | 1201.9
x2 = 0.3995 | 1211.5
x2 = 0.4917 | 1221.4
x2 = 0.6312 | 1240.1
x2 = 0.774 | 1265.4
x2 = 0.8127 | 1273.4
x2 = 0.84 | 1279.6
x2 = 0.8969 | 1293.3
x2 = 0.94 | 1304
x2 = 0.9582 | 1308.3

CCCC[n+]1ccccc1C.F[B-](F)(F)F + ClCCCl
mass density [kg/m3]
Conditions | 298.15 K | 318.15 K
x2 = 0 | 1201.7 | 1188.3
x2 = 0.1068 | – | 1191.1
x2 = 0.1113 | 1205 | –
x2 = 0.1687 | – | 1193
x2 = 0.1822 | 1207.5 | –
x2 = 0.2072 | – | 1194.3
x2 = 0.2675 | 1210.8 | –
x2 = 0.2808 | – | 1196.7
x2 = 0.3097 | – | 1197.8
x2 = 0.377 | 1215.6 | –
x2 = 0.4017 | – | 1201.1
x2 = 0.4688 | 1220.1 | –
x2 = 0.5102 | – | 1205.7
x2 = 0.5619 | 1225.1 | –
x2 = 0.6124 | – | 1210.4
x2 = 0.6751 | 1231.8 | –
x2 = 0.7057 | – | 1214.7
x2 = 0.778 | 1238.7 | –
x2 = 0.8054 | – | 1219.3
x2 = 0.8606 | – | 1220.7
x2 = 0.8818 | 1245.5 | –
x2 = 0.9043 | – | 1222
x2 = 0.9075 | 1246.7 | –
x2 = 0.9231 | – | 1222.2
x2 = 0.942 | 1247.9 | –
x2 = 0.9634 | 1248.1 | –

ClCCl + CCCC[n+]1cccc(C)c1.F[B-](F)(F)F
Conditions | mass density [kg/m3]
298.15 K, x1 = 1 | 1316.2

ClCCCCl + CCCC[n+]1ccccc1C.F[B-](F)(F)F
x1 = 1
Conditions | mass density [kg/m3]
298.15 K | 1180.1
318.15 K | 1155

ClCCCCCl + CCCC[n+]1ccccc1C.F[B-](F)(F)F
Conditions | mass density [kg/m3]
298.15 K, x1 = 1 | 1133.2

ClCCl + CCCC[n+]1ccc(C)cc1.F[B-](F)(F)F
Conditions | mass density [kg/m3]
298.15 K, x1 = 1 | 1316.2

ClCCCCCl + CCCC[n+]1ccc(C)cc1.F[B-](F)(F)F
mass density [kg/m3]
Conditions | 298.15 K | 318.15 K
x1 = 0.1056 | – | 1166.5
x1 = 0.1914 | 1178.5 | –
x1 = 0.1956 | – | 1164.2
x1 = 0.3009 | – | 1161
x1 = 0.3161 | 1175.2 | –
x1 = 0.3978 | – | 1157.4
x1 = 0.4114 | 1172.2 | –
x1 = 0.5017 | – | 1153.2
x1 = 0.5022 | 1168.7 | –
x1 = 0.6171 | – | 1147.2
x1 = 0.6684 | – | 1144.2
x1 = 0.7229 | – | 1140.6
x1 = 1 | 1133.2 | 1111.2

ClCCCCCl + CCCC[n+]1cccc(C)c1.F[B-](F)(F)F
Conditions | mass density [kg/m3]
298.15 K, x1 = 0.1041 | 1181
298.15 K, x1 = 0.196 | 1179
298.15 K, x1 = 0.3006 | 1176.3
298.15 K, x1 = 0.4043 | 1173.2
298.15 K, x1 = 0.5001 | 1169.8
298.15 K, x1 = 0.6067 | 1165.2
298.15 K, x1 = 1 | 1133.2
318.15 K, x1 = 0.1034 | 1166.9
318.15 K, x1 = 0.1945 | 1164.6
318.15 K, x1 = 0.3033 | 1161.6
318.15 K, x1 = 0.4115 | 1157.8
318.15 K, x1 = 0.5025 | 1154
318.15 K, x1 = 0.6685 | 1144.9

ClCCCl + CCCC[n+]1ccc(C)cc1.F[B-](F)(F)F
x1 = 1
Conditions | mass density [kg/m3]
298.15 K | 1245.4
318.15 K | 1216.2

CCCC[n+]1cccc(C)c1.F[B-](F)(F)F + ClCCCl
mass density [kg/m3]
Conditions | 298.15 K | 318.15 K
x2 = 0 | 1183.2 | 1169.4
x2 = 0.1002 | – | 1172.6
x2 = 0.1907 | 1190.2 | –
x2 = 0.209 | – | 1176.6
x2 = 0.2999 | – | 1180.3
x2 = 0.323 | 1196.2 | –
x2 = 0.4167 | 1201.5 | –
x2 = 0.5198 | – | 1191.6
x2 = 0.6035 | – | 1196.7
x2 = 0.703 | 1222.6 | –
x2 = 0.7057 | – | 1203.6
x2 = 0.7424 | 1226 | –
x2 = 0.7856 | 1230.2 | –
x2 = 0.8182 | – | 1211.6
x2 = 0.8256 | 1234.1 | –
x2 = 0.8594 | 1237.3 | –
x2 = 0.8865 | – | 1216.4
x2 = 0.8915 | 1240.3 | –
x2 = 0.9239 | 1243.1 | –
x2 = 0.9289 | – | 1218.2
x2 = 0.9508 | – | 1218.7
x2 = 0.9773 | 1246.1 | –
x2 = 0.9777 | – | 1218.5

CCCC[n+]1cccc(C)c1.F[B-](F)(F)F + ClCCl
298.15 K
Conditions | mass density [kg/m3]
x1 = 0.0181 | 1313.6
x2 = 0 | 1183.2
x2 = 0.1405 | 1191.5
x2 = 0.2096 | 1196.1
x2 = 0.285 | 1201.8
x2 = 0.327 | 1205.5
x2 = 0.4127 | 1213.6
x2 = 0.502 | 1223.6
x2 = 0.6059 | 1237
x2 = 0.702 | 1252.7
x2 = 0.7772 | 1266.9
x2 = 0.8168 | 1275.1
x2 = 0.8493 | 1282.4
x2 = 0.8816 | 1290.3
x2 = 0.9052 | 1295.9
x2 = 0.9395 | 1304.1
x2 = 0.9628 | 1309.5

ClCCl + CCCC[n+]1ccccc1C.F[B-](F)(F)F
Conditions | mass density [kg/m3]
298.15 K, x1 = 1 | 1316.2
